Read-outs that look alike come from different tables or passages of the source.
Legend:
Assay in all cases: microbe, parasite or virus in culture
Format in all cases: cell-based
[1] = system: IIIB strain of HIV-1 (wild-type); settings: for EC50: Human immunodeficiency virus 1, IIIB, MT2, Table 1, 50% protection in MT-2 cells, NA = EC50 > CC50, read-out: WT EC50
[2] = system: HIV-1 variant strain with Y181C mutation in RT
[3] = system: HIV-1 variant strain with K103N/Y181C mutations in RT; settings: Human immunodeficiency virus 1, MT2, read-out: 103N181C EC50, Table 1; 50% protection in MT-2 cells; NA = EC50 > CC50
[4] = Human immunodeficiency virus 1, MT2, Table 1, 50% protection in MT-2 cells, NA = EC50 > CC50, read-out: Y181C EC50
[5] = Human immunodeficiency virus 1, MT2, text, MT-2 cell assay

N#Cc1cc2c(Oc3ccc(F)cc3OCCn3ccc(=O)[nH]c3=O)cc(Cl)cn2c1 [10i, 6-chloro-8-(2-(2-(2,4-dioxo-3,4-dihydropyrimidin-1(2H)-yl)ethoxy)-4-fluorophenoxy)indolizine-2-carbonitrile]
EC50 [1]: 2.5 nM | EC50 [2, 4]: 160 nM | EC50 [2, 5]: 160 nM | EC50 [3]: 110 nM

N#Cc1cc2c(Oc3ccccc3OCCn3ccc(=O)[nH]c3=O)cc(F)cn2c1 [10d, 8-(2-(2-(2,4-dioxo-3,4-dihydropyrimidin-1(2H)-yl)ethoxy)phenoxy)-6-fluoroindolizine-2-carbonitrile]
EC50 [1]: 0.7 nM | activity towards the wild-type virus, in words ([1]; MT-2 cell assay): high picomolar inhibitors | EC50 [2, 4]: 170 nM | EC50 [2, 5]: 170 nM | EC50 [3]: 68 nM

N#Cc1cc2cccc(Oc3ccc(F)cc3OCCn3ccc(=O)[nH]c3=O)n2c1 [11a, 5-(2-(2-(2,4-dioxo-3,4-dihydropyrimidin-1(2H)-yl)ethoxy)-4-fluorophenoxy)indolizine-2-carbonitrile]
EC50 [1]: 17 nM | EC50 [2, 4]: 6900 nM | EC50 [3]: 1300 nM
